PubChem BioAssay AID504332 (National Center for Advancing Translational Sciences (NCATS), 2011)
Hit rate of the full screen: of about 350,000 compounds, about 31,000 (8.9%) were called active. This list was built around the results that the source calls inconclusive (neither active nor inactive); the mix of calls is not that of the screen. Calls follow the shape of the dose curve; as a rule, active = well fitted inhibition curve with a large enough effect; inconclusive = small, poorly fitted or top-dose-only effect; inactive = no such curve, though single readings can be large or run the other way. A potency beside an inconclusive call is a rough fit, not a confirmed value.

Target: Histone-lysine N-methyltransferase EHMT2 (Homo sapiens) (UniProt Q96KQ7)
Experiment: qHTS Assay for Inhibitors of Histone Lysine Methyltransferase G9a; also: nearly all actives have a fitted effect of over 75% in size
Conditions: G9a H3K9 monomethylation, AlphaScreen, 2 h; activity, negative = inhibition: at 59 µM (top of the series) unless noted
Procedure, shortened: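 AlphaScreen detection with an anti-monomethyl H3K9 antibody quantified product after a 2 h room-temperature reaction containing 500 nM biotinylated H3K9 peptide, 20 µM SAM and 20 nM enzyme, which had been preincubated 15 min with compound.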
% is scaled to controls: 0 for no effect and ±100 for the full control effect; potency is read from the fitted curve at half-maximal effect; tags tell the direction and shape of the fitted curve.

UniProt Q96KQ7, sequence (Q96KQ7 whole entry, looked up): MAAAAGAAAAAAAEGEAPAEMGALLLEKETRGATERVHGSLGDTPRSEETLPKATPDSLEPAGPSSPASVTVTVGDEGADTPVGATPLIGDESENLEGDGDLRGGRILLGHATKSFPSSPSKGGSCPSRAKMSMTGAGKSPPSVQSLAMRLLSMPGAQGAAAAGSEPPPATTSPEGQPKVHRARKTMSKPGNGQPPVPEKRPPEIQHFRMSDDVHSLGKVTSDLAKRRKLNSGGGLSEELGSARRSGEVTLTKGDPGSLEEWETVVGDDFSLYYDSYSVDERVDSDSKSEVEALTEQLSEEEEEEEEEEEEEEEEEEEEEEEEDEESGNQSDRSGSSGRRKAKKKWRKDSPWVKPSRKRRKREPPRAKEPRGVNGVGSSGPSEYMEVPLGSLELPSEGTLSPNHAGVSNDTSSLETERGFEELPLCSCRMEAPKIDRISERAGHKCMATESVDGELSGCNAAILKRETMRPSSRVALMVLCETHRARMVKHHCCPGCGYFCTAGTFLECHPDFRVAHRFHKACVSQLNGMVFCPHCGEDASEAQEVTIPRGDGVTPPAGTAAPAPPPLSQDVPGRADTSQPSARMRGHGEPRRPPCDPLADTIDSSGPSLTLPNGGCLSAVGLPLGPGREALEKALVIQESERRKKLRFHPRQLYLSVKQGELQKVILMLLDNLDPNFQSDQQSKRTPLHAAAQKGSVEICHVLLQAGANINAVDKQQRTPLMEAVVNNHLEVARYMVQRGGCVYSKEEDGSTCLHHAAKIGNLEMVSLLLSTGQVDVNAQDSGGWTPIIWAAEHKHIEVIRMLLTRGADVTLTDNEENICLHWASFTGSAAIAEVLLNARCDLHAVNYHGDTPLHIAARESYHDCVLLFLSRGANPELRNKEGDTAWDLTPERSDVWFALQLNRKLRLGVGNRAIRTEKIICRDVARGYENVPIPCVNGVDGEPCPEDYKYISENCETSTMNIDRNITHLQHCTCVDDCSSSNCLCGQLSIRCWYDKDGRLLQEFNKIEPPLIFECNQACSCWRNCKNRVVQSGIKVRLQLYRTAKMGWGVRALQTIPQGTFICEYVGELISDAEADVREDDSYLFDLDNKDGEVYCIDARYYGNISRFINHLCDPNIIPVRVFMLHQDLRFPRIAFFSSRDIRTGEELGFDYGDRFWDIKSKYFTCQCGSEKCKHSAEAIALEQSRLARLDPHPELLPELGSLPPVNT

| Compound | Potency | activity, negative = inhibition |
| --- | --- | --- |
| c1ccc(-c2nc(-c3ccc(-c4ccon4)s3)no2)cc1 | inconclusive: 44.7 µM [inhibitor, partial curve] |  |
| Cc1ccc(C2(C(F)(F)F)NC(=O)N3N=C4CCCCCN4C3=C2C#N)cc1 (centres undefined) | inactive |  |
| O=c1[nH]cc(NCCc2ccccc2)c(=O)[nH]1 | inconclusive: 89.1 µM [inhibitor, single point] |  |
| CCOc1ccc(NC(=O)COC(=O)C23CC4CC(CC(C4)C2)C3)c([N+](=O)[O-])c1 | inconclusive: 31.6 µM [inhibitor, single point] |  |
| CSc1ccc(CCNC(=O)c2ccc(-c3nc(COc4ccc(C)cc4)c(C)o3)cc2)cc1 | inconclusive: 3.16 µM [inhibitor, partial curve, poor fit] |  |
| COc1ccc([C@H]2CC(=O)C=C(c3ccc(C)c([N+](=O)[O-])c3)C2)cc1 |  | inactive: -0.108% [at 0.501 µM] |
| O=C(COc1ncnc2ccc(Br)cc12)NC1CCCC1 | inconclusive: 8.91 µM [inhibitor, single point] |  |
| COc1ccc(NC(=O)CN2CCCCC2)c([N+](=O)[O-])c1 | inactive |  |
| CCOC(=O)c1nnc(-c2ccccc2)nc1NCc1ccc(Cl)cc1 | inactive |  |
| O=C(COC(=O)/C=C/c1ccc(Cl)cc1)Nc1ccc2[nH]c(=O)[nH]c2c1 | inconclusive: 79.4 µM [inhibitor, partial curve] |  |
| O=[N+]([O-])c1cccc(/C=N/n2c(-c3cccnc3)n[nH]c2=S)c1 | active: 1.78 µM |  |
| COC(=O)c1[nH]c2ccc(Br)cc2c1NC(=O)CN1CCN(C2CCCCC2)CC1 |  | inconclusive: -91.1% [inhibitor] |
| COc1ccc(CN(Cc2cccnc2)S(=O)(=O)c2ccc(-n3cnnn3)c(OC)c2)cc1 | inactive |  |
| COc1ccc(C(=O)NCCS(=O)(=O)N(C)Cc2ccccc2)cc1 | inconclusive: 89.1 µM [inhibitor, partial curve, poor fit] |  |
| CCNc1cc(N2CCN(C3CCCCC3)CC2)c2noc3c2c1C(=O)c1ccccc1-3 | inconclusive: 28.2 µM [inhibitor, single point] |  |
| O=C(CS(=O)(=O)c1cccc2nsnc12)N1CCN(c2cccc(C(F)(F)F)c2)CC1 | inactive |  |
| O=C(Cn1cc(S(=O)(=O)c2ccccc2)c(=O)c2cc3c(cc21)OCO3)Nc1ccc(Cl)cc1 | inactive |  |
| COc1cc2c(cc1OC)CN(C(=O)/C=C/c1cccc([N+](=O)[O-])c1)CC2 | inconclusive: 79.4 µM [inhibitor, single point] |  |
| COC(=O)CCCN=C1SCCN1Cc1ccccc1 | inconclusive: 89.1 µM [inhibitor, single point] |  |
